From the supplement of paper PMC4967469
Lines with a small IC50 respond at low doses; a fit beyond the top or the lowest dose is shown as a bound at that dose. AUC, from the same fit, is the share of area under the viability curve across the 256-fold dose range; it is 1 without any effect and falls as sensitivity rises. For some of these results: The top dose, if marked as inferred, comes from the curve model; the source does not state it.

How the values were obtained:
Experiment in all cases: Viability of human cancer cell lines after 72 h of drug (GDSC screen)
Trametinib = compound: CC(=O)Nc1cccc(-n2c(=O)n(C3CC3)c(=O)c3c(Nc4ccc(I)cc4F)n(C)c(=O)c(C)c32)c1 [Trametinib]; details: top dose 1 µM
Procedure: (§1)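 Human cancer cell lines in 384-well plates, medium with 10% serum, drug for 72 h over a 256-fold dose range (nine 2-fold or five 4-fold steps up to the top dose). Adherent lines were fixed and stained with the nucleic acid dye Syto60, suspension lines read with resazurin; signal relative to control wells, capped at 0 and 100%. One two-parameter sigmoid per drug and line, fitted in a mixed model over all curves with the slope shared within a line.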

HG-6-64-1 = compound: CCN1CCN(Cc2ccc(NC(=O)c3ccc(C)c(/C=C/c4cnc5[nH]ccc5c4OC)c3)cc2C(F)(F)F)CC1 [HG-6-64-1]; details: top dose 5.12 µM; top dose inferred
Procedure: as §1

I-BET-762 = compound: CCNC(=O)C[C@@H]1N=C(c2ccc(Cl)cc2)c2cc(OC)ccc2-n2c(C)nnc21 [I-BET-762]; details: top dose 20 µM; top dose inferred
Procedure: as §1

PF-4708671 = compound: CCc1cncnc1N1CCN(Cc2nc3ccc(C(F)(F)F)cc3[nH]2)CC1 [PF-4708671]; details: top dose 10 µM; top dose inferred
Procedure: as §1

AV-951 = compound: COc1cc2nccc(Oc3ccc(NC(=O)Nc4cc(C)on4)c(Cl)c3)c2cc1OC [AV-951]; details: top dose 0.128 µM; top dose inferred
Procedure: as §1

MS-275 = compound: Nc1ccccc1NC(=O)c1ccc(CNC(=O)OCc2cccnc2)cc1 [MS-275]; details: top dose 5 µM; top dose inferred
Procedure: as §1

KIN001-244 = compound: O=C(NC(COc1ccc2[nH]c(=O)[nH]c2c1)c1ccccc1)c1cccn(Cc2ccc(F)c(F)c2)c1=O [KIN001-244]; details: top dose 20 µM; top dose inferred
Procedure: as §1

Cell Line	AUC (Trametinib)	IC50 (Trametinib)	AUC (HG-6-64-1)	IC50 (HG-6-64-1)	AUC (I-BET-762)	IC50 (I-BET-762)	AUC (PF-4708671)	IC50 (PF-4708671)	AUC (AV-951)	IC50 (AV-951)	AUC (MS-275)	IC50 (MS-275)	AUC (KIN001-244)	IC50 (KIN001-244)
EB-3 (Burkitt lymphoma, suspension)	0.975	> 1 µM	0.698	1.28 µM	0.926	> 20 µM	0.961	> 10 µM	0.97	> 0.128 µM	0.848	4.67 µM	0.773	9.07 µM
EC-GI-10 (oesophagus, adherent)	0.283	0.0153 µM	0.986	> 5.12 µM	0.985	> 20 µM	0.964	> 10 µM	0.989	> 0.128 µM	0.986	> 5 µM	0.908	> 20 µM
EJM (lymphoid neoplasm, semi-adherent)	0.986	> 1 µM	0.951	> 5.12 µM	0.84	10.7 µM	0.986	> 10 µM	0.992	> 0.128 µM	0.76	1.51 µM	0.826	9.62 µM
EKVX (lung adenocarcinoma, adherent)	0.635	0.225 µM	0.934	> 5.12 µM	0.957	> 20 µM	0.948	> 10 µM	0.97	> 0.128 µM	0.764	4.67 µM	0.936	> 20 µM
EM-2 (chronic myeloid leukaemia, suspension)	0.271	0.0127 µM	0.23	0.0465 µM	0.712	5.41 µM	0.973	> 10 µM	0.812	0.0802 µM	0.45	0.223 µM	0.79	10.3 µM
ES1 (Ewing sarcoma, adherent)	0.985	> 1 µM	0.858	4.1 µM	0.91	> 20 µM	0.975	> 10 µM	0.939	> 0.128 µM	0.902	> 5 µM	0.737	5.88 µM
ES5 (Ewing sarcoma, adherent)	0.971	> 1 µM	0.741	1.76 µM	0.781	9.59 µM	0.93	> 10 µM	0.977	> 0.128 µM	0.94	> 5 µM	0.807	12.1 µM
ES6 (Ewing sarcoma, adherent)	0.939	> 1 µM	0.714	1.51 µM	0.937	> 20 µM	0.974	> 10 µM	0.979	> 0.128 µM	0.677	1.11 µM	0.891	> 20 µM
ES7 (Ewing sarcoma, adherent)	0.926	> 1 µM	0.701	1.2 µM	0.763	7.38 µM	0.928	> 10 µM	0.912	> 0.128 µM	0.782	2.16 µM	0.596	2.31 µM
ES8 (Ewing sarcoma, adherent)	0.966	> 1 µM	0.869	4.15 µM	0.756	6.4 µM	0.957	> 10 µM	0.979	> 0.128 µM	0.515	0.342 µM	0.763	6.7 µM
ES-2 (ovary, adherent)	0.113	0.00446 µM	0.92	> 5.12 µM	0.947	> 20 µM	0.902	> 10 µM	0.991	> 0.128 µM	0.872	3.8 µM	0.79	7.75 µM
ETK-1 (biliary tract, adherent)	0.823	0.697 µM	0.786	2.53 µM	0.93	> 20 µM	0.959	> 10 µM	0.98	> 0.128 µM	0.682	1.08 µM	0.863	> 20 µM
EVSA-T (breast, adherent)	0.981	> 1 µM	0.983	> 5.12 µM	0.626	2.63 µM	0.96	> 10 µM	0.991	> 0.128 µM	0.74	1.34 µM	0.712	4.47 µM
EW-1 (Ewing sarcoma, semi-adherent)	0.987	> 1 µM	0.77	1.8 µM	0.815	9.85 µM	0.983	> 10 µM	0.988	> 0.128 µM	0.83	2.79 µM	0.814	9.76 µM
EW-3 (Ewing sarcoma, adherent)	0.933	> 1 µM	0.956	> 5.12 µM	0.822	13.9 µM	0.984	> 10 µM	0.964	> 0.128 µM	0.923	> 5 µM	0.705	5.18 µM
EW-11 (Ewing sarcoma, adherent)	0.865	> 1 µM	0.743	1.98 µM	0.912	> 20 µM	0.975	> 10 µM	0.976	> 0.128 µM	0.918	> 5 µM	0.737	7.36 µM
EW-13 (Ewing sarcoma, suspension)	0.984	> 1 µM	0.642	0.826 µM	0.712	5.33 µM	0.986	> 10 µM	0.973	> 0.128 µM	0.973	> 5 µM	0.643	3.26 µM
EW-16 (Ewing sarcoma, adherent)	0.875	> 1 µM	0.584	0.548 µM	0.89	> 20 µM	0.963	> 10 µM	0.974	> 0.128 µM	0.724	1.4 µM	0.858	17.5 µM
EW-18 (Ewing sarcoma, suspension)	0.975	> 1 µM	0.894	> 5.12 µM	0.785	9.17 µM	0.967	> 10 µM	0.981	> 0.128 µM	0.885	> 5 µM	0.742	6.52 µM

Cell Line	AUC (Trametinib)	IC50 (Trametinib)	AUC (HG-6-64-1)	IC50 (HG-6-64-1)	AUC (I-BET-762)	IC50 (I-BET-762)	AUC (PF-4708671)	IC50 (PF-4708671)	AUC (AV-951)	IC50 (AV-951)	AUC (MS-275)	IC50 (MS-275)	AUC (KIN001-244)	IC50 (KIN001-244)
EW-24 (Ewing sarcoma, semi-adherent)	0.992	> 1 µM	0.871	3.84 µM	0.993	> 20 µM	0.907	> 10 µM	0.993	> 0.128 µM	0.892	4.65 µM	0.985	> 20 µM
Farage (B-cell lymphoma, suspension)	0.992	> 1 µM	0.559	0.449 µM	0.931	> 20 µM	0.992	> 10 µM	0.988	> 0.128 µM	0.727	1.19 µM	0.738	5.11 µM
GB-1 (glioma, adherent)	0.656	0.184 µM	0.173	0.0263 µM	0.861	> 20 µM	0.962	> 10 µM	0.974	> 0.128 µM	0.739	1.73 µM	0.897	> 20 µM
GDM-1 (acute myeloid leukaemia, suspension)	0.945	> 1 µM	0.538	0.405 µM	0.518	1.39 µM	0.937	> 10 µM	0.542	0.0103 µM	0.567	0.471 µM	0.473	1.06 µM
GI-1 (glioma, adherent)	0.912	> 1 µM	0.81	2.57 µM	0.755	6.54 µM	0.971	> 10 µM	0.987	> 0.128 µM	0.777	1.92 µM	0.882	19.7 µM
GI-ME-N (neuroblastoma, adherent)	0.341	0.0192 µM	0.693	1.37 µM	0.716	6.45 µM	0.911	> 10 µM	0.921	> 0.128 µM	0.773	2.68 µM	0.58	2.24 µM
GOTO (neuroblastoma, adherent)	0.98	> 1 µM	0.928	> 5.12 µM	0.7	4.98 µM	0.98	> 10 µM	0.978	> 0.128 µM	0.664	0.958 µM	0.821	13.8 µM
GR-ST (lymphoblastic leukaemia, suspension)	0.952	> 1 µM	0.763	2.22 µM	0.554	1.81 µM	0.869	> 10 µM	0.976	> 0.128 µM	0.687	1.18 µM	0.739	7.06 µM
GRANTA-519 (B-cell lymphoma, suspension)	0.982	> 1 µM	0.894	5.08 µM	0.96	> 20 µM	0.982	> 10 µM	0.982	> 0.128 µM	0.95	> 5 µM	0.882	17.5 µM
GT3TKB (stomach, adherent)	0.285	0.0168 µM	0.738	1.39 µM	0.984	> 20 µM	0.953	> 10 µM	0.989	> 0.128 µM	0.883	4.24 µM	0.929	> 20 µM
H-EMC-SS (chondrosarcoma, adherent)	0.158	< 0.00391 µM	0.737	1.89 µM	0.959	> 20 µM	0.964	> 10 µM	0.965	> 0.128 µM	0.97	> 5 µM	0.844	> 20 µM
HA7-RCC (kidney, adherent)	0.813	0.608 µM	0.9	> 5.12 µM	0.982	> 20 µM	0.956	> 10 µM	0.985	> 0.128 µM	0.823	3.34 µM	0.824	13.5 µM
HAL-01 (lymphoblastic leukaemia, suspension)	0.825	0.51 µM	0.69	1.01 µM	0.467	1.03 µM	0.921	> 10 µM	0.985	> 0.128 µM	0.708	1.11 µM	0.897	19.9 µM
HC-1 (hairy cell leukaemia, suspension)	0.881	0.972 µM	0.705	1.18 µM	0.744	6.03 µM	0.979	> 10 µM	0.97	> 0.128 µM	0.589	0.542 µM	0.697	4.37 µM
HCC1187 (breast, suspension)	0.978	> 1 µM	0.983	> 5.12 µM	0.896	> 20 µM	0.962	> 10 µM	0.985	> 0.128 µM	0.894	> 5 µM	0.898	> 20 µM
HCC1500 (breast, adherent)	0.943	> 1 µM	0.844	3.86 µM	0.812	11.2 µM	0.928	> 10 µM	0.977	> 0.128 µM	0.932	> 5 µM	0.921	> 20 µM
HCC2157 (breast, suspension)	0.986	> 1 µM	0.867	4.99 µM	0.866	19.4 µM	0.976	> 10 µM	0.909	> 0.128 µM	0.732	1.49 µM	0.95	> 20 µM
HCC2218 (breast, suspension)	0.982	> 1 µM	0.952	> 5.12 µM	0.885	> 20 µM	0.948	> 10 µM	0.976	> 0.128 µM	0.65	0.909 µM	0.808	13.7 µM
HD-MY-Z (Hodgkin lymphoma, adherent)	0.366	0.0266 µM	0.917	> 5.12 µM	0.865	17.8 µM	0.967	> 10 µM	0.969	> 0.128 µM	0.76	1.78 µM	0.768	7.52 µM
